Sequences with one replicate were seen in a single cluster, so their values are uncertain.
System: ATP
Assay: switch fluorescence ratio, 500 uM ATP over buffer (Cy3 cluster intensity, sum of 5 cycles each) (fold (ratio)); higher = stronger signal-on switching upon ATP binding; sequences stand for … in TCGTCGGCAGCGTCAGATGTGTATAAGAGACAGTTTTTTTTTTTTTTTTTTTTTTTTT…TC
Settings: aptamer strand: ATP DNA aptamer (quencher-CACCTGGGGGAGTATTGCGGAGGAAGG + anchor), 100 nM annealed; ATP concentration: 500 uM; one replicate
Summary of the method: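 Exposure to 500 uM ATP lasted 15 min at 22 °C before imaging, and a selection-buffer image was taken beforehand, for Cy3-labelled switching-strand clusters on a modified Illumina MiSeq flow-cell annealed to 100 nM quencher-labelled ATP aptamer. Five buffer/ATP cycles were run with NaOH stripping and re-annealing between them. The fluorescence ratio per cluster is summed target-cycle over summed buffer-cycle Cy3 intensity, averaged per switch-domain sequence. Clusters outside 100-1000 RFU were excluded.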

Sequence | switch fluorescence ratio
ACACAAAACC | 1.05
GGATGGATTC | 1.1
TCATGACCTA | 1.02
AAACGGGAAG | 1.02
GCTTTACGTA | 1.05
ACCGTAGAAG | 1.1
ATGATGCCCC | 1.04
TAAGTGCGG | 0.979
ATATGGTTAA | 1.02
TTAGCAAAAG | 1.12
GTACTAAATA | 0.991
ACGGCTTTAA | 0.995
CGCGAGTTCG | 1.02
GCCGCCGTAG | 1.05
ATATGGGAG | 1.03
ATGATACCGC | 1.39
AGAAGTTAAG | 1.02
AAAGGGCAAA | 1
AAGTCGCTGG | 1.01
GAGAGAGATA | 0.995
TAGGAATGTG | 1.01
GGACGAAGTT | 1.02
TACGCTCGAC | 1.77
AGCTACGGGA | 1.14
TATTGGGAGT | 0.975
TATTGATGTA | 0.938

Sequence | switch fluorescence ratio
TACGCGGGAC | 1.05
TAGTAAACGG | 1.02
TACAATCGAA | 0.977
AATGCTGTCT | 1
CAAATAGACT | 0.979
CCCTGTTGGG | 0.947
AAAATGGATA | 0.98
GCTTCGACGG | 1.07
GACTAGTAGC | 0.985
ACCCATTGTT | 1.03
TTCTATTTTG | 1
GAGGGTACCG | 1.03
TTATGGGACT | 0.999
CGGGTGTCCA | 0.999
GTGCCGGTTC | 1.01
ATTGGTGCAT | 1
TGACAGCCG | 1.11
TGAAGTCCCA | 0.985
CTATCTCCTG | 1.01
TATCCATCTT | 0.966
CCCAATCCCG | 1.09
AGTAACCTCG | 1.03
GGATTTAGGA | 0.956
GGGAGGGCTC | 0.988
GTGTTATTAT | 0.997
GTAAGGAATC | 1.04

Sequence | switch fluorescence ratio
CTGCAAAGGG | 1.16
ACGTTCATC | 1.06
AAAAGTCTTA | 1.03
CGCGTAATTA | 1.03
TATCAACCCC | 1.04
CAATGAGGCA | 0.965
GATCGGGATT | 0.961
TACCTCAATG | 1.06
GATCGAACAC | 1.06
ACCGGCGGT | 1.01
TGAAATAGAC | 1.03
CAATAATTGC | 1.03
ATGATAAC | 1.01
GACAATGAAC | 1.1
ACACATTCG | 1
GGAACCCCCG | 1.14
TAACCTACGG | 1.17
CGTGTATAAT | 1.02
TCGCTCTAAT | 1.07
TGGCTATTAT | 0.978
TTTATTGGAG | 1.03
GGGCAATATA | 1.25
CCAAAAGGGC | 1.02
GCGGGCTGTG | 0.961
TGGTCCTGG | 1.03
TACAATTCTA | 0.996

Sequence | switch fluorescence ratio
AGGACAAGAA | 1.01
AACCCCGGGT | 1.07
ATGGTTTGCT | 0.996
TACATTAGTA | 0.991
CTTCGGTATC | 1.67
TTATGATC | 1.02
CCAGTGGCTT | 0.991
TCCCTACTCG | 1.13
GATATCATTA | 1.01
AGTTCCTCAG | 1.63
GATAGCCACG | 1.04
CGCCTAGGGT | 1.01
CGGGGCCGTG | 0.962
GGGGTTATAT | 1.01
TCTTCTCTTA | 1.03
AGGAAGCGGC | 0.997
TCCTGAGGAC | 1.05
TCTCGATGGT | 1.01
GGTAGTGGTC | 0.979
GGTATAGGGC | 0.998
AAACGGTCTG | 0.995
TACCATGGTC | 1.02
AGGCATGTTG | 0.988
GCTCCGCGGG | 5.35
TAGATATCGA | 0.985
TTTTCGAGAC | 0.962

Sequence | switch fluorescence ratio
GCCCAAGCGA | 1.1
CGGGAACCGA | 0.983
ATAGATGTCC | 1
GTAGGTTAAG | 1
CACCATCC | 1.55
GCCAGTCTGT | 1
TTAACCTTCT | 2.15
TAGTAAGGTA | 0.986
GCCCGCCGCG | 1.45
GTTCTATTCA | 0.971
GTTATTGTA | 0.975
GCAGACTTGG | 0.975
GACACGGACA | 1.44
TAAACCCAAA | 0.992
ATCCTGACAG | 1.04
TTATGCTTCG | 0.988
TTCAGCAACA | 1.13
GAGAGGGTGC | 1.07
ATCTTTTCA | 0.946
GAGGGTGCTC | 1.03
GCCATTGATC | 0.981
CCGAAAGGGC | 2.09
AATAAGCGTA | 0.978
ATGCCGCCGC | 1.04
GTTATAAACG | 0.968
AGGACCAAGC | 1.02

Sequence | switch fluorescence ratio
GCCTTTCCCG | 2.31
GCTGTAATGC | 1.19
TTAATATCT | 1.01
TTTAAGGGGC | 1.03
AACATAGTGC | 0.973
TACCTACTAA | 1.25
GCGGAATTAG | 1.01
CTCTGCGTGA | 1.6
TTTCGATCCG | 0.995
CCATGACTGG | 1.01
CAACGGAGTA | 1.05
TGCAGGAGTA | 0.931
GCAGTGAATG | 0.995
TTTCGGTCTT | 0.992
GAATAATCG | 0.972
AAAGAACCGT | 1.04
TGGGGTGATT | 1
TTTTGGTG | 1.06
CTCTGATAAA | 1.04
ATGATCTCCT | 0.978
ACTCATTTTT | 1.03
AATGTGTTAC | 1.05
AGCTGGGTTA | 1.03
GCAAGGCCTT | 0.991
CGGATTGGAA | 1.07
GAAAACCTTG | 0.973

Sequence | switch fluorescence ratio
TTCACATCAA | 1.01
TAGTCGAACG | 1
CCCGCACGCG | 1.28
TGAATAGTT | 1.01
TGTGTTTGCT | 0.973
GCGATTCAGT | 1.01
CTGCCCGGAT | 1.02
TCGCTGGGCA | 0.991
CCTTTGTGGT | 1.04
TGCTTATCT | 1.03
GGTAGAAGCA | 0.966
GAAATCGGAG | 1.06
AAAGCGGGAT | 0.996
ATTAAGAAT | 0.98
TGGTAGACTT | 0.976
CCGCATTTAT | 5.75
ATATTCATTT | 0.974
AATAGCTGGA | 1.01
TCTCGCTTCA | 1.04
GACCACTGTG | 1.13
TGCTGAGCTT | 0.966
CGGGGAAGTA | 0.967
GCCCGGAGCT | 1.65
ATGTTCCTCT | 1.07
TCGGTGGTTC | 1.02
CTCACGGTGT | 1.27

Sequence | switch fluorescence ratio
GTCGTGATGG | 0.98
TAAGTCAAAT | 1
AAAGTATGAT | 0.987
CTGGTCAGGT | 1.06
CAATTTTAT | 0.964
GTCCCTCACG | 1.02
GGGGGCGG | 1.07
CCTTAGATCC | 1.01
ACTGACGGGA | 1.38
AGGAGTGTTG | 1.01
TATTAATCGT | 0.983
CCAGCAACGG | 1.31
ATCTATACCT | 1.2
CCTGTTGGCT | 0.98
ACTCATCACG | 1.13
CGGACAGTTA | 1.1
TAATTGTTGG | 0.968
TTTACAAATG | 1.03
CAGTTGGTGC | 1.1

— the supplement of paper PMC10126150
